# PubChem BioAssay AID624296 (National Center for Advancing Translational Sciences (NCATS), 2012)
# Among all 350,000 compounds or so, about 9,900 (2.8%) were called active. The inconclusive results got no clear call from the source; some entries with a clear call stand among them for comparison. The call rests on the fitted dose curve; in most records, active means well fitted activation curve with a large enough effect; inconclusive means small, poorly fitted or top-dose-only effect; inactive means no such curve, though single readings can be large or run the other way. Potencies of inconclusive entries are left out as doubtful fits.
# Assay: A quantitative high throughput screen for small molecules that induce DNA re-replication in MCF 10a normal breast cells. Further: nearly all actives have a fitted effect of over 50% in size. On activity, positive = re-replication: % of control where 0% means no effect.
# Conditions: MCF 10A DNA re-replication, Hoechst nuclear intensity, 48 h; activity, positive = re-replication: at 46.1 µM (top of the series)
# Potency means the concentration at half of the fitted maximal effect; tags describe the fitted curve by direction and shape.
SMILES,Potency,"activity, positive = re-replication"
Fc1ccc(/C=N/N2CCN(Cc3ccccc3)CC2)cc1,"inconclusive [activator, single point]",
O=C(Nc1nc2ccccc2s1)C1CCCN1S(=O)(=O)c1ccc(Cl)cc1 (stereo unspecified),"inconclusive [activator, partial curve, poor fit]",
COc1ccc(-c2nc(Cn3c(SCc4ccc(C)cc4)nc4ccncc43)c(C)o2)cc1OC,"inconclusive [activator, single point]",
COc1ccc(/C(C)=N/NC(=O)c2ccc(NS(=O)(=O)c3cccs3)cc2)cc1,,inactive: -1.37%
CCCc1[nH]nc2c1C(CCc1ccccc1)C(C#N)=C(N)O2 (stereo unspecified),"inconclusive [activator, single point]",
O=C(C[n+]1ccccc1)Nc1ccccc1,,inactive: -1.9%
Cc1cc(C)n2nc3nc4c(cc3c2n1)CCCC4,,inactive: -183% [at 0.0737 µM]
COc1cccc(/C=C2\CCC(C3CCCC3)C2=O)c1OC (stereo unspecified),"inconclusive [activator, single point]",
COc1cccc(/C=N/Nc2ncnc3scc(-c4ccccc4)c23)c1OC,"inconclusive [activator, partial curve, poor fit]",
O=C(Nc1cccc(S(=O)(=O)N2CCOCC2)c1)c1ccc2c(=O)n3c(nc2c1)CCCCC3,"inconclusive [activator, single point]",
Cc1ccc(Cn2nnc3c(=O)n(CC(=O)NCc4ccco4)cnc32)cc1,"inconclusive [activator, single point]",
Cc1cc2nc(SCC(=O)O)nc(C)c2cc1C,"inconclusive [activator, single point]",
CCCOC(=O)c1ccc(OCC(O)Cn2c(C)nc3ccccc32)cc1 (stereo unspecified),,inactive: 13.2%
N#Cc1ccccc1OCC(=O)NCc1ccccc1CN1CCCC1,,inactive: 7.56%
O=S(=O)(c1ccccc1)N1CCNCC1,,inactive: 10.4%
O=C(c1[nH]ncc1-c1ccc(Cl)cc1)C1CO1 (stereo unspecified),active: 3.66 µM,
CN=c1scc(-c2ccc(F)cc2)n1/N=C/c1ccc(O)c(O)c1,"inconclusive [activator, single point]",
O=S(=O)(Nc1cccc(S(=O)(=O)N2CCCC2)c1)c1ccccc1F,,inactive: 0.786%
COCc1nn2c(N)c(-c3ccccc3)cnc2c1-c1ccccc1,"inconclusive [activator, single point]",
O=C(COC(=O)CCC(=O)c1ccc(F)cc1)Nc1cccc(S(=O)(=O)N2CCCC2)c1,,inactive: 2.46%
Cc1ccc(NC(=O)c2c3c(nc4ccccc24)CCC3)cc1S(=O)(=O)N(C)C,,inactive: 11.4%
CCc1ccc(CN2CCC(n3nccc3NC(=O)c3cccc(F)c3)CC2)cc1,"inconclusive [activator, partial curve, poor fit]",
Cc1ccc(S(=O)(=O)N2CCCCC2)cc1NC(=O)CNc1ccc(C(F)(F)F)cc1,,inactive: 4.01%
O=C(Cc1ccccc1[N+](=O)[O-])OCC(=O)N1CCN(c2ccccc2)CC1,"inconclusive [activator, full curve, poor fit]",

SMILES,Potency,"activity, positive = re-replication"
CCOC(=O)c1cc(CC)sc1NC(=O)c1cc([N+](=O)[O-])ccc1N1CCOCC1,"inconclusive [activator, full curve, poor fit]",
Cn1cc(CN2C[C@]3(C)C[C@H]2CC(C)(C)C3)c(-c2ccc3c(c2)OCCO3)n1,"inconclusive [activator, single point]",
O=C(NC1CCCC1)c1ccc(CS(=O)(=O)Cc2ccccc2F)o1,"inconclusive [activator, single point]",
CCN1CCCC1CNC(=O)c1ccc(Sc2ccccc2Cl)c([N+](=O)[O-])c1 (stereo unspecified),"inconclusive [activator, partial curve, poor fit]",
O=C(NN=C1CCCCCC1)c1cc(-c2ccccc2)nc2ccccc12,active: 16.4 µM,
CCOC(=O)C(NC(=O)CC(C)C)(Nc1sc2c(c1C(N)=O)CCCC2)C(F)(F)F (stereo unspecified),,inactive: -2.86%
COc1ccc(NC(=O)c2ccco2)c(NC(=O)c2ccc([N+](=O)[O-])cc2)c1,"inconclusive [activator, single point]",
Cc1sc2ncnc(N3CCN(CCOc4ccc(Cl)cc4)CC3)c2c1C,active: 17.8 µM,
O=[N+]([O-])c1cc(C(F)(F)F)ccc1NN=C1CCCC1,"inconclusive [activator, single point]",
CC(=O)c1sc(Nc2nc3cc4c(cc3s2)OCO4)nc1C,active: 18.4 µM,
CCCNC(=O)c1cc2cc([N+](=O)[O-])ccc2s1,,inactive: -2.98%
O=C(CCc1ccc(CCC(=O)c2cccs2)s1)c1cccs1,"inconclusive [activator, partial curve, poor fit]",
CCOC(=O)c1ccc(OS(=O)(=O)c2ccccc2)c(OC)c1,"inconclusive [activator, single point]",
CCN1CCN(c2nc(C)nc3c2sc(=S)n3C)CC1,,inconclusive: 43.4% [activator]
N#CC1=C(N)Oc2cc(O)ccc2C1C1CCCCC1 (stereo unspecified),"inconclusive [activator, single point]",
CC(C)OC(=O)CN1CCN(C2c3ccccc3-c3ccccc32)CC1,"inconclusive [activator, full curve, poor fit]",
CCC(C)C(=O)Nc1nnc(-c2cccs2)s1 (stereo unspecified),,inactive: -33.8%
CC(C)C1C2=C(CC(C)(C)CC2=O)ON1c1ccccc1 (stereo unspecified),,inconclusive: -15.3% [activator]
Cc1ncc(N=Nc2ccccc2Cl)c(-c2ccccc2)n1,"inconclusive [activator, single point]",
CCOc1ccc(S(=O)(=O)N2CCN(C(=O)COc3ccc(Br)cc3)CC2)cc1,,inactive: -4.5%
CC1(C)CC[C@]2(C(=O)O)CC[C@]3(CO)C(=CCC4[C@@]5(C)C[C@H](O)[C@H](O)[C@@](C)(C(=O)O)C5CC[C@]43C)[C@@H]2C1 (stereo partly specified),,inactive: 4.58%
CCc1ccc2oc(-c3cc(N=Cc4cccc(OC)c4O)ccc3O)nc2c1,"inconclusive [activator, single point]",
Cc1ccc(C)n1CCN1CCN(S(=O)(=O)c2ccc(F)cc2F)CC1,,inactive: 9.5%
Cc1cnc(NC(=O)c2cc3c(C)nn(-c4ccccc4)c3s2)s1,,inactive: -13%

SMILES,Potency,"activity, positive = re-replication"
CCOC(=O)N1CCN(C(=O)c2ccc3c(c2)N(C)C(=O)/C(=C\c2ccc(OCC)c(OC)c2)S3)CC1,"inconclusive [activator, single point]",
COc1ccc(CCN(C)c2ccc(S(=O)(=O)N3CCCC3)cc2[N+](=O)[O-])cc1OC,"inconclusive [activator, single point]",
O=c1c2ccccc2nc(-c2ccccc2)n1CCCN1CCOCC1,"inconclusive [activator, single point]",
Cc1cc(C)n(-c2ccc(C(=O)Nc3ccc(S(=O)(=O)N(C)C)cc3)cc2)n1,"inconclusive [activator, single point]",
O=C1/C(=C\c2cccs2)SC(=S)N1C1CCS(=O)(=O)C1 (stereo unspecified),"inconclusive [activator, single point]",
CCN(CC)C(=O)Cn1nnc(-c2ccc(S(C)(=O)=O)cc2)n1,,inactive: 9.72%
O=C(CCl)Nc1cc(-c2ccccc2)nn1-c1ccccc1,"inconclusive [activator, single point]",
COc1cccc(C2N=C(c3ccccc3C)NO2)c1OC (stereo unspecified),,inactive: -0.587%
Cc1cccc(N2CCN(C(=O)NCc3ccc(F)cc3)CC2)c1C,"inconclusive [activator, single point]",
CCc1nnc(N/N=C/c2cccs2)n1N,"inconclusive [activator, partial curve]",
COc1cccc(-c2ncc3ccccc3c2COC(=O)c2ccc(Br)cc2)c1,,inactive: -0.477%
Cc1cccc(-n2c(C)cc(/C=N/n3cnnc3)c2C)c1,"inconclusive [activator, partial curve, poor fit]",
CCN(CC)CC(=O)Nc1c(C#N)cnn1-c1ccccc1,"inconclusive [activator, full curve, poor fit]",
N=c1c(C(=O)NC2CCCC2)cc2c(=O)n3ccccc3nc2n1CCCN1CCOCC1,"inconclusive [activator, partial curve, poor fit]",
COc1ccccc1NC(=O)CSc1nc2n[nH]c(C)c2c(=N)n1-c1ccccc1Cl,"inconclusive [activator, single point]",
CCOc1ccc2c(c1)C(c1ccccc1)=NNC(c1ccccc1)=N2,"inconclusive [activator, single point]",
O=C(NCCc1ccccc1)c1ccc([N+](=O)[O-])cc1,,inactive: -6.86%
Cc1ccc2cc3c(NC(=O)c4ccco4)nn(CC(C)C)c3nc2c1,"inconclusive [activator, single point]",
COc1cccc(/C=N/NC(=S)Nc2cccc(C(=O)O)c2)c1O,,inactive: 0.775%
Cc1ccc(NC(=O)N2CCCC2C(=O)Nc2nnc(C(C)C)s2)cc1 (stereo unspecified),"inconclusive [activator, partial curve]",
COc1ccc(N(C(=O)c2ccco2)C(C(=O)NC2CCCCC2)c2cccs2)cc1OC (stereo unspecified),,inactive: -1.14%
O=S(=O)(c1cccc(COc2c(Cl)cccc2Cl)c1)N1CCOCC1,"inconclusive [activator, single point]",
COc1ccc(NC(=O)CSc2ccc(C)cc2)cc1,"inconclusive [activator, partial curve, poor fit]",
